Assay results published in article PMC12136788.
The other results are listed elsewhere or left out.

T1: UNK ZnF1-3 (human, UniProt Q9C0B0 31-174)
T1 sequence: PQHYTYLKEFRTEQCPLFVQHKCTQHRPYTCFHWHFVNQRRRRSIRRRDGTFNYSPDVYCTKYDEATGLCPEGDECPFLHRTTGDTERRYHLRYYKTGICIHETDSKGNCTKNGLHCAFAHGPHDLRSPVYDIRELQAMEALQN

B1: chr16:45382771:45382772:-_ENSMUSG00000022661_ENSMUST00000163230|mus_mus|mus_mus_mus_hu_True|38_58 (ssRNA)
RNA: GGGAGUUCUACAGUCCGACGAUCCUGGGUCAUGUUAUAAGACAAAUGGACAGGGAGGGCAUGCUUCUCAAAAAAUGUGAACUACUCUCUAAGACUAACAAUAUUGCUCUAGCUAUAAAAAUAAGUUAAAUGAAUAAGUUAAGACAACAGAGGAUUGAGCAUCA
B2: chr12:39763582:39763583:-_ENSG00000139116_ENST00000544797|hu_mus|hu_hu_hu_mus_False|8_88 (ssRNA)
RNA: GGGAGUUCUACAGUCCGACGAUCCUCUAGGAACUGGGCAUUCACUUUAAAAUCUGGAGGGGGCAGCCCGUUUUUAAUCGCUGAGGUCUUUUUCUCAUCAAUACUCUUGAACAGGUGUCUAACAGCACGAGAAAUAAUGCCCUGCAACAGAGGAUUGAGCAUCA
B3: chr15:103030146:103030147:-_ENSMUSG00000009575_ENSMUST00000118152|mus_hu|motif|central (ssRNA)
RNA: GGGAGUUCUACAGUCCGACGAUCUUUGUUUUCCGCAUCCUCAGGAUAUGCAUGCCAUGUCAGUCUCUCUUCAUAAAAUGCGGUCACAAUUUGUGGACAUUUCACAUUAGCUUCUUUUGCAAGAACCAGGUCAGCUUCAUCUGUCAACAGAGGAUUGAGCAUCA
B4: chr1:60041781:60041782:+_ENSMUSG00000041040_ENSMUST00000036540|mus_hu|mus_mus_mus_hu_False|8_88 (ssRNA)
RNA: GGGAGUUCUACAGUCCGACGAUCAAGUUUACAAUAGUAAAGUAAAUCAAAUUUAGUCAAAUUUUCUUUUAUUUUCCUUCACAAAAGAAAAUCUUUAUAACCCAGUCCUAGUCUUGGACAUAGUGAAUCUCCAUGGGUCUGACUCAACAGAGGAUUGAGCAUCA
B5: chr16:38090358:38090359:+_ENSMUSG00000022812_ENSMUST00000023507|mus_hu|FALSE|FALSE (ssRNA)
RNA: GGGAGUUCUACAGUCCGACGAUCCCUUCAAGACAGAUCGGCACGGAUAUUUAACAUAUAGAUGAUUUAGGACUUGGGAAAAAAUACAAUUCUUUCCCCUCCCUUUCCUGGGAGGAGAGAAAAGAGAGGGCAAAUCCUAAAAAACAACAGAGGAUUGAGCAUCA
B6: chr6:38652254:38652255:-_ENSG00000124767_ENST00000373365|hu_hu|hu_hu_hu_mus_False|48_48 (ssRNA)
RNA: GGGAGUUCUACAGUCCGACGAUCCGAGAACUUCAUAGCAGGGAAGUCAAGCUUCUGCAGGAGGGUCAGUCCAAGAACCCUCGUAUAAAAAUCCAGUGACUUCUUAGGAUCCUUAAUUCUUAGCAUCGUUUGCUGCAGUAGAAACAACAGAGGAUUGAGCAUCA
B7: chr1:39494564:39494565:+_ENSG00000168653_ENST00000372967|hu_hu|hu_hu_hu_mus_True|8_8 (ssRNA)
RNA: GGGAGUUCUACAGUCCGACGAUCAUGCAUUCGCCUCAUCGUUUUGUACCGAAGCAAGCACUCUUCGAAGUCAUCGAACUCUAUCUUGCACUCCUUUUUCGCCCGGGUCCCACCGAUCCCGUGUGCACAUUCUAUCCACUCUUUCAACAGAGGAUUGAGCAUCA
B8: chr17:45747064:45747065:+_ENSG00000108424_ENST00000290158|hu_hu|hu_hu_hu_mus_True|18_18 (ssRNA)
RNA: GGGAGUUCUACAGUCCGACGAUCGCCCACAGUCCACGCUGUUGUGUCUCGAACAACUACACUGGGGUCUUUCAUUAGUUCUAUUAGGGUGGGCAUAGCCUGUAUGACUAAUGGUUUGAGCUGACUGGGCUCUGGUCCUUCCAACAACAGAGGAUUGAGCAUCA
B9: chr1:150204246:150204247:-_ENSG00000143401_ENST00000314136|hu_hu|FALSE|FALSE (ssRNA)
RNA: GGGAGUUCUACAGUCCGACGAUCGAAAGUAUCAUUCAGGCCUUCAAUUUCCCCAUUGACACACAGGCAAUUAUCAAGGACUAACUCUGUCACCUCCUCCGGGGAUCUGUUCCUUAACUCCAGGUUAAUCUUCUUCUUCAUCUCCAACAGAGGAUUGAGCAUCA
B10: chr4:48207216:48207217:-_ENSMUSG00000028343_ENSMUST00000030028|mus_mus|FALSE|FALSE (ssRNA)
RNA: GGGAGUUCUACAGUCCGACGAUCGUGGCAGUGUAAGUUAACGGCGUGCUUCCGGCAAUGCCACCUUCCGCUUGCAUGAUAAAGACUGUCCAGGACAGAUUUAAAGUGGAGACAGGCCUCUGGUUUUUAUUUUGUUCUUUAAAACAACAGAGGAUUGAGCAUCA
B11: 142151363_142153690_750_CDS_ENSG00000109445_ENST00000262990|human|control|control (ssRNA)
RNA: GGGAGUUCUACAGUCCGACGAUCACAGAAACAAGCCUUACAACGGAGACAUGAGUGCUGACCAAGCCGAUUGCAUGAAACACAUUUAAAUGUUUCUGCCUCUAAAACCUGGCAGCUGGCUUGAUGCUCAAAUUGAUCAUCUUCCAACAGAGGAUUGAGCAUCA
B12: chr5:108714765:108714766:-_ENSG00000198961_ENST00000361557|hu_mus|FALSE|FALSE (ssRNA)
RNA: GGGAGUUCUACAGUCCGACGAUCACAAACUGCUGGAGUAUGCUCUGUCUCAGUGCGAUUAUGAAGGUUUGUAUUGCUUUCUAAGGUCUCCCUGACUUCCUCACUAUGACAUACUGUGGCAAUGGAUGGACUGCUCUCAGUGCUCAACAGAGGAUUGAGCAUCA
B13: 87057791_87057911_813_CDS_ENSMUSG00000046442_ENSMUST00000055438|mouse|control|control (ssRNA)
RNA: GGGAGUUCUACAGUCCGACGAUCAAAGUCAGGAAUGCAGACGUGUUUGUCCUCCAUUUUCCUUCGCAUGUUCUUGAUGGCAUGAAUUGACGUCUCAUAAUAAAUCUGAGGCCUCCUGCGCAGAGGGAAGUCCUUCACCCAACUCAACAGAGGAUUGAGCAUCA
B14: chr19:53454881:53454882:-_ENSMUSG00000025024_ENSMUST00000025997|mus_mus|FALSE|FALSE (ssRNA)
RNA: GGGAGUUCUACAGUCCGACGAUCGUUUCAUUCUACCAAAGCCAAACAAUGACAACAAUGUAUCUUCCUUACUCAGCAUCUAAGCAAUCAGUUACCUUUAGAAAAAUACAAGGAUAAAAAGGAGAGUGUAAAGUAAAGCCCUGCCAACAGAGGAUUGAGCAUCA
B15: chr4:110384322:110384323:+_ENSG00000138802_ENST00000265175|hu_mus|FALSE|FALSE (ssRNA)
RNA: GGGAGUUCUACAGUCCGACGAUCGUAGGGCUGGGAGGCACUCGAAUAGGAAUGGGAUGCUGAUGCUGGAAUUCCUUGGAAAGAUCCGGGCAUGGAGCCCCCCAUGUGAGGAGCGGAAGGACCUCUGCCAUACAUCUGCUGUGCCAACAGAGGAUUGAGCAUCA
B16: 155305557_155306525_3075_CDS_ENSMUSG00000042699_ENSMUST00000042141|mouse|control|control (ssRNA)
RNA: GGGAGUUCUACAGUCCGACGAUCGAUAACAACAUCCAAAUUAUUAUCUGGUCCAGUGUUAGUAAACACUUGUGUCAAUAAACAAUCUUCGGGAAAUCCAGAGUUAAUCAGAAUCUCUUUAAGCUGUACUUUGGCCUCCCAAGUCAACAGAGGAUUGAGCAUCA
B17: 129203514_129217221_856_CDS_ENSMUSG00000036155_ENSMUST00000038361|mouse|control|control (ssRNA)
RNA: GGGAGUUCUACAGUCCGACGAUCCAGGAUGUUAUCCAGCAAGACGGCGAGCGUUUUCUUCAGAUCAUAGGCUGUCAUGACACCAGCGUAGGGGCCAUCCACCACGUCCCUGUUCUCCUCUGCCAGUGCCUUAAUGUACCUCUUCAACAGAGGAUUGAGCAUCA
B18: chr1:163117127:163117128:-_ENSG00000143248_ENST00000313961|hu_mus|hu_hu_hu_mus_False|68_78 (ssRNA)
RNA: GGGAGUUCUACAGUCCGACGAUCUGCUACAAAGGAUGUAACUCAACUCACAGGGCAUGAUUUCAUAGCCUGGCUAAAUGACUACUUGAUUAGCUCCUUAUAAAAUUCAGAGCGCACAAAGCGGGGCAGAGAAUCCUUCUCCAUCAACAGAGGAUUGAGCAUCA
B19: 103636980_103637622_244_CDS_ENSMUSG00000027184_ENSMUST00000028607|mouse|control|control (ssRNA)
RNA: GGGAGUUCUACAGUCCGACGAUCAUGCUGAGAAGCCGGCGCAGCUGCCCCGGCCGCCGCCUCACUCCCGGAGGAACCGGACGGCGGCGGCGGUCCCGACGAUUUGCUGCCGCUUCCGCUGUGGCUGGUGGCCGAGGGCAUCGUCAACAGAGGAUUGAGCAUCA
B20: chr4:144460044:144460045:+_ENSG00000153147_ENST00000283131|hu_mus|hu_hu_hu_mus_False|18_18 (ssRNA)
RNA: GGGAGUUCUACAGUCCGACGAUCACGGUCCAUAGCCUGAAGAUCAACUUGCGGAUUCCAAUCUGAGUCAUAUAAAAUGACUACAUCAGCAGUUGCAAGAUUGAUGCCCAGACCACCAGCACGCGUGCUUAGCAUAAAUACAAACAACAGAGGAUUGAGCAUCA
B21: chr4:95690885:95690886:+_ENSMUSG00000028572_ENSMUST00000156910|mus_mus|mus_mus_mus_hu_False|58_88 (ssRNA)
RNA: GGGAGUUCUACAGUCCGACGAUCUUUAGAAAAUGUUAAAUACCAUGAGCAUGCUAAUUCAAAGGCUUAUUUUAUUUUACUAAAAGACACAGGCAAGCAGACACUACAAGAAUAUAUGAAAAUGAAACUCAACAAUAUAACUGUCAACAGAGGAUUGAGCAUCA
B22: chr8:42798479:42798480:+_ENSG00000168172_ENST00000307602|hu_hu|motif|central (ssRNA)
RNA: GGGAGUUCUACAGUCCGACGAUCAGAAUGCUCCCCAAUAAGGUUCACAUCAGGAAGGGUAAAGUCAUUAAUUUGCUGUCCGGAAAUCUCAUGAUUAUAAUCCAAGAUUCCUUUUAAAAUUUUCUUUAAAUUGCUUAUCUUUAGCAACAGAGGAUUGAGCAUCA

Target: T1, UNK ZnF1-3
Assay: nsRBNS (natural sequence RNA bind-n-seq); RBNS binding buffer (assumed for nsRBNS): 25 mM Tris pH 7.5, 150 mM KCl, 3 mM MgCl2, 0.01% Triton X-100, 500 ug/ml BSA, 20 U/ml SUPERase-In, 4 C; UNK is unkempt and MSI1 is Musashi-1; names of the RNAs are library labels; protein concentration not given here; high values mean tight binding

Binder	binding signal
B1	2.29 enrichment R
B2	1.81 enrichment R
B3	0.722 enrichment R
B4	0.653 enrichment R
B5	0.982 enrichment R
B6	0.956 enrichment R
B7	0.585 enrichment R
B8	0.626 enrichment R
B9	0.934 enrichment R
B10	0.857 enrichment R
B11	0.839 enrichment R
B12	0.773 enrichment R
B13	0.588 enrichment R
B14	1.64 enrichment R
B15	1.19 enrichment R
B16	0.857 enrichment R
B17	0.43 enrichment R
B18	0.967 enrichment R
B19	0.733 enrichment R
B20	1.03 enrichment R
B21	1.97 enrichment R
B22	1.52 enrichment R
